The assay relates to tomato late blight fungus. The class given is in vivo, Phytophthora infestans. The note with it: 200 ppm, foliar application, 5 or 6 days after inoculation.

Structures are written as SMILES.

Take `O=C(NCc1ccccn1)C1(c2cc(Cl)cc(Cl)c2)CC1(Cl)Cl` (stereo not shown) [I-A-17]: the “control efficacy (activity level) on tomato late blight” value is recorded as 1 (the control rate is 10 to 19%).

These data come from US20260206763A1, “AMIDE COMPOUNDS OR SALTS THEREOF, BACTERICIDAL AGENTS FOR AGRICULTURE AND HORTICULTURE CONTAINING SAID COMPOUNDS, AND METHOD OF USING SAME” (NIHON NOHYAKU CO., LTD., priority 2022, published 2026).
